These are yes or no findings as the source states them, for the method shown. For some of these results: Binding seen in cells or lysates may run through a third protein. Some results given as binding are weak or reduced against the parent protein; the word gives no strength. For some of these results: Sequences can lack the tags named with a protein.
T1: green fluorescent protein-tagged kindlin-2 (in Kind^Ko cells) (mouse) (UniProt Q8CIB5)
T1 sequence: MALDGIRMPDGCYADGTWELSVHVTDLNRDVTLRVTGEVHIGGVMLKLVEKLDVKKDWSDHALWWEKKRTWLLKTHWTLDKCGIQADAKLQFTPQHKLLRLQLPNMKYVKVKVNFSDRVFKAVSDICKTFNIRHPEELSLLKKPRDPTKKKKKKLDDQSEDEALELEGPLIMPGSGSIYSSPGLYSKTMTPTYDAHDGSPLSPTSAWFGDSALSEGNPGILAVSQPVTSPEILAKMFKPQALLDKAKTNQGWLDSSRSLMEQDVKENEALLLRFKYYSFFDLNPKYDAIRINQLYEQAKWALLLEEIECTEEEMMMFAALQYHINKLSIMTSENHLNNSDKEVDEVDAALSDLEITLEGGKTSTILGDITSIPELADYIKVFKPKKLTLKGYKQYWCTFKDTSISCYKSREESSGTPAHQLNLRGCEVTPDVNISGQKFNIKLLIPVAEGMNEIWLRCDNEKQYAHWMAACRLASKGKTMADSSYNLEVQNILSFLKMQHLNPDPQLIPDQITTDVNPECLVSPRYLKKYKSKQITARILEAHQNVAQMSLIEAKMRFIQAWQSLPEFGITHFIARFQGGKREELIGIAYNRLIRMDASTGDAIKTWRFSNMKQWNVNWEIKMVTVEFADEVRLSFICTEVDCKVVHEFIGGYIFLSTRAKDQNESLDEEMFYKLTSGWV

Chains of the proteins cited; added tags and fusions are not shown. Lines headed by an entry give the natural chain unless they say otherwise; changes in a name come on top. A line that says so, or that is headed by a name, gives the form on record, which may keep a tag or linker.
UniProt Q8VI36: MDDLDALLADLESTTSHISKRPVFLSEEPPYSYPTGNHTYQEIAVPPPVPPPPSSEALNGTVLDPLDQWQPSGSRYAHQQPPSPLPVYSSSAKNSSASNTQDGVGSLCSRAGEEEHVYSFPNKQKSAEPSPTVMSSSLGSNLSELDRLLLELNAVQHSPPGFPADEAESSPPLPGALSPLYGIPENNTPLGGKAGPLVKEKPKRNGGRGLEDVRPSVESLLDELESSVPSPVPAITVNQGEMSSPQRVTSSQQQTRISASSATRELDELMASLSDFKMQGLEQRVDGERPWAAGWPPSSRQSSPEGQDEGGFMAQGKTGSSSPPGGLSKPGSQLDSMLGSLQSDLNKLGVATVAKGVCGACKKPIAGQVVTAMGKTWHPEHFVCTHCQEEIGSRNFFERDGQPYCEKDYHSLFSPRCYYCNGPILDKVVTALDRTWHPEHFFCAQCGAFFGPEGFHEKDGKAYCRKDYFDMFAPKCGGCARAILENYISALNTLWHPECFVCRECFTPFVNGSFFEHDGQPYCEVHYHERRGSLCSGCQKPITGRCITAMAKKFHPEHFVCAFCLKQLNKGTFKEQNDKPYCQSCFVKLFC
GFP-tagged paxillin (Q8VI36-2, form named): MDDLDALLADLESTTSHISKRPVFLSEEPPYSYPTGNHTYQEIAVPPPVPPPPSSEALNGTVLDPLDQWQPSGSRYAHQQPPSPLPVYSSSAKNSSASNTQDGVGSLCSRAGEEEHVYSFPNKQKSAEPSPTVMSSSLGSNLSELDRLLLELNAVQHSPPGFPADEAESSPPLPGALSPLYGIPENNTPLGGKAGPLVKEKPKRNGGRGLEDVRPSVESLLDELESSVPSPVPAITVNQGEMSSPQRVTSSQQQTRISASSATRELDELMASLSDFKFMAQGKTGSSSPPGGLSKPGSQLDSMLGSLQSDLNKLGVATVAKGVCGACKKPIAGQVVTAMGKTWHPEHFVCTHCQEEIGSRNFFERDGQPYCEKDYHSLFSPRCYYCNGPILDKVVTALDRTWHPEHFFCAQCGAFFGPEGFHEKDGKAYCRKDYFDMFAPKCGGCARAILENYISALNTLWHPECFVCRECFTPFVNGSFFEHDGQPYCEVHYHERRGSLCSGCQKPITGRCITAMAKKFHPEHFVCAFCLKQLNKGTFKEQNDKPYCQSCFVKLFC
UniProt Q62219: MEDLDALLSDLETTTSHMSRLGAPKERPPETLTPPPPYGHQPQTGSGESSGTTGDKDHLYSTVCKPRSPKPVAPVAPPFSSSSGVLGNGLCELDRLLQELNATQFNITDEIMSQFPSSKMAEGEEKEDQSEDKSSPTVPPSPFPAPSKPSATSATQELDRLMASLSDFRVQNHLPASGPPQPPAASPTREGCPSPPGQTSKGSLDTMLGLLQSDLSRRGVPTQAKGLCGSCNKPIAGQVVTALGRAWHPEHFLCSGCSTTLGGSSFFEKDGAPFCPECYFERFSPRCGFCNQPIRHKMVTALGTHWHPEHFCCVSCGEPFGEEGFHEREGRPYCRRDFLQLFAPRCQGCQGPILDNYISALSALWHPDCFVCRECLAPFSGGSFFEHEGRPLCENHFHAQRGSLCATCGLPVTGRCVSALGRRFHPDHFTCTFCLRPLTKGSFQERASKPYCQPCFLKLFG
UniProt P34152: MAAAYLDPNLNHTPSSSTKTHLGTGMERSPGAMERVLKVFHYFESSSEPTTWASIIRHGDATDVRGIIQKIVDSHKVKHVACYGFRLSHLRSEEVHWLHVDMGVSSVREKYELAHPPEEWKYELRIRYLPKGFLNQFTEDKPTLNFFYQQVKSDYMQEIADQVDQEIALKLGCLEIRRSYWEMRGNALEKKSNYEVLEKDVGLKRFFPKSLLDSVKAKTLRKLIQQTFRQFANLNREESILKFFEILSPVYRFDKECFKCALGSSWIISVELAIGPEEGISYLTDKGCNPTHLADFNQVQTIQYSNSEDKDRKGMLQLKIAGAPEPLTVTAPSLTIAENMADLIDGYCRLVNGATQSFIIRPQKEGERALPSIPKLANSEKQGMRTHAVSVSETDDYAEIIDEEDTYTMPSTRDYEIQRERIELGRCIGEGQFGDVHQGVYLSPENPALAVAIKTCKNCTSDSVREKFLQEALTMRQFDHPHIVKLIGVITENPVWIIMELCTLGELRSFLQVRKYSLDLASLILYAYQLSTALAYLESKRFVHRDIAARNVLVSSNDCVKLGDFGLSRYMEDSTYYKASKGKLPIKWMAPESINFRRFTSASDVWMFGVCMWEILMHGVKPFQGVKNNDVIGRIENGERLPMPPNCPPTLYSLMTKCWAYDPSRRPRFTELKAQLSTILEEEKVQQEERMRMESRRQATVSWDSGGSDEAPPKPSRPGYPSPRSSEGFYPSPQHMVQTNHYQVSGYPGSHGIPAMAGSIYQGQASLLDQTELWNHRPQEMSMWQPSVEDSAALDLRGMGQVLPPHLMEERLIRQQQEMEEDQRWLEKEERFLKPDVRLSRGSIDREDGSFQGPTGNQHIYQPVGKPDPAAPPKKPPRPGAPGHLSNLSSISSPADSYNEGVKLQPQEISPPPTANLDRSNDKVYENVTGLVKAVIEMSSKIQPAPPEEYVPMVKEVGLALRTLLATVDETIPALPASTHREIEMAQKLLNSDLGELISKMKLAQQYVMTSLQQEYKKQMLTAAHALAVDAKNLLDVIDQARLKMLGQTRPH
UniProt O43294: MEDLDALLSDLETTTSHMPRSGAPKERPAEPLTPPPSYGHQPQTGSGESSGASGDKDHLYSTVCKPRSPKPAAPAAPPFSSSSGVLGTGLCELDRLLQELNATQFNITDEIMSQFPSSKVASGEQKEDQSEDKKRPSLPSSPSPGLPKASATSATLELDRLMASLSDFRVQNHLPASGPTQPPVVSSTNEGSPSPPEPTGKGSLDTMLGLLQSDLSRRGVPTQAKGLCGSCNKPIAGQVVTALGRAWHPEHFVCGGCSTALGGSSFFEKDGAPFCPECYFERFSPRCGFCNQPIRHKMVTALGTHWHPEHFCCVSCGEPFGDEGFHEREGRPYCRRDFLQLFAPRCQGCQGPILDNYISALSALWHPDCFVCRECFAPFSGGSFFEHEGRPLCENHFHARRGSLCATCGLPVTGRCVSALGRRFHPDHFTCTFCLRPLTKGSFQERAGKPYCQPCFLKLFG

T2: GFP-tagged kindlin-2 lacking the PH domain (in Kind^Ko cells) (mouse) (UniProt Q8CIB5)
T2 sequence: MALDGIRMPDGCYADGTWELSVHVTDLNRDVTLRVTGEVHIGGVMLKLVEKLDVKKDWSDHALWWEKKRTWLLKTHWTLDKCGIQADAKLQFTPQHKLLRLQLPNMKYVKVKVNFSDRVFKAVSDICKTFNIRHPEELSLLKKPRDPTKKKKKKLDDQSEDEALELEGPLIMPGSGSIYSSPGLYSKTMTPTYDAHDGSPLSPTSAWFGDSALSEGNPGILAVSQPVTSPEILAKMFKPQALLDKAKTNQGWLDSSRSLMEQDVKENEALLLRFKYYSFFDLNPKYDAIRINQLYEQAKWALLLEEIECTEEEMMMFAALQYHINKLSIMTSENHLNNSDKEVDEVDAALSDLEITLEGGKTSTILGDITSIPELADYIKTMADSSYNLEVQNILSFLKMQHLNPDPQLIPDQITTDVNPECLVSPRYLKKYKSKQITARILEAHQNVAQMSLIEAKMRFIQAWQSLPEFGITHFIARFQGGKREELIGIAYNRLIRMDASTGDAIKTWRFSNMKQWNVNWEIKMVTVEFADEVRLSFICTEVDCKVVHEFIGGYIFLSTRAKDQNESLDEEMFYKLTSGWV

T3: kindlin-2 N-terminally fused with the Gal4-DNA binding domain (mouse) (UniProt Q8CIB5)
T3 sequence: T1 sequence

T4: GFP-tagged leupaxin (mouse) (UniProt Q99N69)
T4 sequence: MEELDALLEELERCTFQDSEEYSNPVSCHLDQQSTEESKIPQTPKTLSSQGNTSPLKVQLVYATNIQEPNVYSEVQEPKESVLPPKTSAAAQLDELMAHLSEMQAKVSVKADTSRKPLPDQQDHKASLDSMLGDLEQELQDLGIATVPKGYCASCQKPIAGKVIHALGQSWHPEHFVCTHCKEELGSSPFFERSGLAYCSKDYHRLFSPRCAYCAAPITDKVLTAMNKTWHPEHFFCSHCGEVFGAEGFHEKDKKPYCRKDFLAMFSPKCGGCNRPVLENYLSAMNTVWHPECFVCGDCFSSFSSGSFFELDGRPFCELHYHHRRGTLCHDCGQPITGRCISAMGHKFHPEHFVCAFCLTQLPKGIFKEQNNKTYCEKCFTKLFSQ

B1: leupaxin (human cDNA library clone) (protein, UniProt O60711 1-386)
chain: MEELDALLEELERSTLQDSDEYSNPAPLPLDQHSRKETNLDETSEILSIQDNTSPLPAQLVYTTNIQELNVYSEAQEPKESPPPSKTSAAAQLDELMAHLTEMQAKVAVRADAGKKHLPDKQDHKASLDSMLGGLEQELQDLGIATVPKGHCASCQKPIAGKVIHALGQSWHPEHFVCTHCKEEIGSSPFFERSGLAYCPNDYHQLFSPRCAYCAAPILDKVLTAMNQTWHPEHFFCSHCGEVFGAEGFHEKDKKPYCRKDFLAMFSPKCGGCNRPVLENYLSAMDTVWHPECFVCGDCFTSFSTGSFFELDGRPFCELHYHHRRGTLCHGCGQPITGRCISAMGYKFHPEHFVCAFCLTQLSKGIFREQNDKTYCQPCFNKLFPL
B2: kindlin-2 (endogenous, Kind^Ctr fibroblasts) (protein, UniProt Q8CIB5 1-680)
chain: T1 sequence
B3: FLAG-tagged kindlin-2 (protein, UniProt Q8CIB5 1-680)
chain: T1 sequence

Tests used:
[1] = molecular target: T1, green fluorescent protein-tagged kindlin-2 (in Kind^Ko cells) (mouse); assay: co-IP; GFP-IP in lysates of K2GFP-, K2ΔPHGFP- or GFP-reconstituted Kind^Ko cells overexpressing FAK-Myc and PxnCH
[2] = molecular target: T2, GFP-tagged kindlin-2 lacking the PH domain (in Kind^Ko cells) (mouse); assay: as above
[3] = molecular target: T3, kindlin-2 N-terminally fused with the Gal4-DNA binding domain (mouse); assay: two-hybrid; kindlin-2 fused to the Gal4 DNA-binding domain (pGBKT7) as bait, screened against a human full ORF cDNA library and a human keratinocyte-derived cDNA library
[4] = molecular target: paxillin (endogenous, Kind^Ctr fibroblasts) (mouse (endogenous in Kind^Ctr fibroblasts)) (UniProt Q8VI36); assay: co-IP; Kind^Ctr fibroblasts lysed in 50 mM Tris pH 8.0, 150 mM NaCl, 1% Triton X-100, 0.05% sodium deoxycholate, 10 mM EDTA; paxillin antibody 2 hr at 4°C, protein A/G Plus Agarose; isotype-matched IgG as control; western blot
[5] = molecular target: GFP-tagged paxillin (UniProt Q8VI36); assay: co-IP; GFP-IP with µ-MACS anti-GFP magnetic beads of lysates of HEK 293T cells overexpressing the GFP-tagged bait and the FLAG- or Cherry-tagged partner; western blot
[6] = molecular target: T4, GFP-tagged leupaxin (mouse); assay: as above
[7] = molecular target: GFP-tagged Hic-5 (mouse) (UniProt Q62219); assay: as above

| Molecule | binding [1] | binding [2] | binding [3] | further results |
| --- | --- | --- | --- | --- |
| Myc-tagged FAK (from UniProt P34152 1-1052) (enzyme) | binds | no binding | – | – |
| Hic-5 (human cDNA library clone) (from UniProt O43294 1-461) | – | – | binds | – |
| Cherry-tagged paxillin (in Kind^Ko cells) (from UniProt Q8VI36-2 1-557) | binds | no binding | – | – |
| B1 | – | – | binds | – |
| B2 | – | – | – | binding [4]: binds |
| B3 | – | – | – | binding [5]: binds; binding [6]: binds; binding [7]: binds |

Reference: article PMC4749545, “Kindlin-2 cooperates with talin to activate integrins and induces cell spreading by directly binding paxillin” (eLife, 2016)
